Assay results: the supplement of paper PMC10886265
MIC by broth microdilution (CLSI, 0.25-128 µg/mL, 18 h, 37 °C) of Gram-negative wastewater isolates picked on carbapenem-selective plates; higher = less susceptible. No active / inactive call. Isolates were selected for resistance.

Tests used:
Assay in all cases: Broth microdilution (CLSI), cation-adjusted Mueller-Hinton broth, two-fold steps from 0.25 to 128 µg/mL, 18 h at 37 °C.
Imipenem = compound: C[C@@H](O)[C@H]1C(=O)N2C(C(=O)O)=C(SCCNC=N)C[C@H]12 [Imipenem]
Ertapenem = compound: C[C@@H](O)[C@H]1C(=O)N2C(C(=O)O)=C(S[C@@H]3CN[C@H](C(=O)Nc4cccc(C(=O)O)c4)C3)[C@H](C)[C@H]12 [Ertapenem]
Meropenem = compound: C[C@@H](O)[C@H]1C(=O)N2C(C(=O)O)=C(S[C@@H]3CN[C@H](C(=O)N(C)C)C3)[C@H](C)[C@H]12 [Meropenem]

Test System | MIC (Imipenem) | MIC (Ertapenem) | MIC (Meropenem)
Stenotrophomonas maltophilia isolate secondary sludge #31 (carbapenemase genes (PCR): ND) | 128 µg/mL | 64 µg/mL | 64 µg/mL
Stenotrophomonas maltophilia isolate secondary sludge #158 (carbapenemase genes (PCR): ND) | 32 µg/mL | 16 µg/mL | 64 µg/mL
Stenotrophomonas maltophilia isolate secondary sludge #159 (carbapenemase genes (PCR): ND) | 64 µg/mL | 32 µg/mL | 32 µg/mL
Stenotrophomonas maltophilia isolate sewage #15 (carbapenemase genes (PCR): ND) | 16 µg/mL | 16 µg/mL | 64 µg/mL
Stenotrophomonas maltophilia isolate sewage #93 (carbapenemase genes (PCR): IMP) | 128 µg/mL | 64 µg/mL | 128 µg/mL
